Consider eight variants from the supplement of paper PMC12217912.

Sequences and labels used below:
B1: TEV protease; numbered along this chain (parent)
chain: MGESLFKGPRDYNPISSSICHLTNESDGHTTSLYGIGFGPFIITNKHLFRRNNGTLVVQSLHGVFKVKDTTTLQQHLVDGRDMIIIRMPKDFPPFPQKLKFREPQREERICLVTTNFQTKSMSSMVSDTSCTFPSGDGIFWKHWIQTKDGQCGSPLVSTRDGFIVGIHSASNFTNTNNYFTSVPKNFMELLTNQEAQQWVSGWRLNADSVLWGGHKVFMVKPEEPFQPVKEATQL

This experiment covers variants of B1. Briefly: raw area under fraction-flipped curve 0-4 h after induction (AUC4h, not background-subtracted), DNA-recorder readout of cleavage of the substrate (dimensionless); higher = more cleavage of the substrate by the protease variant. To be noted: temperature: 34 °C; time window: 0-4 h after rhamnose induction. On the procedure:
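In vivo DNA recorder in E. coli TOP10(DE3) ΔrhaA at 34 °C. Each TEVp single-site mutant (parent TEVp 0) is paired with a single-site variant of the 7-mer TEVs (canonical ENLYFQ|S). The substrate sits between flexible linkers in a Bxb1-sfGFP-TEVs-SsrA fusion, so cleavage stabilises Bxb1 and speeds flipping of a recombination array, read by NGS. The value is the raw area under the fraction-flipped curve over 0-4 h after rhamnose induction (AUC4h), with ≥20 reads per time point. It is not background-subtracted; inactive controls average about 0.047.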

Some of the results follow. Sequences were assembled here from the parent chain. Inactive controls read about 0.05.
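Also: Bxb1 expression induced with 0.2% (w/v) L-rhamnose at OD600 near 0.5, cultures sampled hourly, flipped fraction per protease–substrate barcode pair counted by paired-end Illumina sequencing.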

With S171N, the “area with substrate EALYFQS” value was 0.0634, the “area with substrate ECLYFQS” value was found to be 0.0454, the “area with substrate EDLYFQS” value came to 0.0585 and the “area with substrate EFLYFQS” value was determined as 0.0918. Besides, the “area with substrate EHLYFQS” value was found to be 0.0746, the “area with substrate EILYFQS” value amounted to 0.0558, the “area with substrate ELLYFQS” value was 0.0578 and the “area with substrate EMLYFQS” value worked out at 0.0671. Besides, the “area with substrate EQLYFQS” value turned out to be 0.052, the “area with substrate ERLYFQS” value was 0.0713, the “area with substrate ESLYFQS” value came to 0.0501 and the “area with substrate EVLYFQS” value stood at 0.0895. For the same variant, the “area with substrate EWLYFQS” value was found to be 0.0974.

For V157K, the “area with substrate EALYFQS” value amounted to 0.077, the “area with substrate EHLYFQS” value was found to be 0.0232, the “area with substrate EILYFQS” value is 0.0671 and the “area with substrate EKLYFQS” value is 0.0673. For the same variant, the “area with substrate ELLYFQS” value was determined as 0.0469, the “area with substrate EMLYFQS” value stood at 0.0555 and the “area with substrate ETLYFQS” value stood at 0.0933.

Turning to V157C, the “area with substrate EALYFQS” value was found to be 0.106, the “area with substrate EGLYFQS” value stood at 0.0829, the “area with substrate EILYFQS” value was 0.106 and the “area with substrate EKLYFQS” value came to 0.0989. For the same variant, the “area with substrate EMLYFQS” value came to 0.134, the “area with substrate EPLYFQS” value was 0.104, the “area with substrate ERLYFQS” value was 0.104 and the “area with substrate ESLYFQS” value is 0.0709. Besides, the “area with substrate ETLYFQS” value stood at 0.148 and the “area with substrate EYLYFQS” value was found to be 0.0951.

In the case of V157T, the “area with substrate EALYFQS” value amounted to 0.107, the “area with substrate ECLYFQS” value was determined as 0.0902, the “area with substrate EFLYFQS” value came to 0.0971 and the “area with substrate EWLYFQS” value stood at 0.0878.

Consider Q194D, for which the “area with substrate EALYFQS” value is 0.0939, the “area with substrate EGLYFQS” value is 0.102, the “area with substrate EHLYFQS” value turned out to be 0.122 and the “area with substrate EKLYFQS” value came out at 0.144. For the same variant, the “area with substrate ELLYFQS” value was determined as 0.11, the “area with substrate EMLYFQS” value amounted to 0.129, the “area with substrate EQLYFQS” value was 0.154 and the “area with substrate ERLYFQS” value is 0.137. The “area with substrate ESLYFQS” value was determined as 0.108 and the “area with substrate EYLYFQS” value stood at 0.117.

On to G150S, for which the “area with substrate EALYFQS” value was found to be 0.0687, the “area with substrate ECLYFQS” value stood at 0.0553, the “area with substrate EDLYFQS” value was 0.0705 and the “area with substrate EGLYFQS” value was found to be 0.0702. In addition, the “area with substrate EHLYFQS” value is 0.06, the “area with substrate EKLYFQS” value was found to be 0.0452, the “area with substrate ELLYFQS” value is 0.0553 and the “area with substrate EMLYFQS” value stood at 0.0983. The “area with substrate EPLYFQS” value came to 0.0771, the “area with substrate EQLYFQS” value worked out at 0.0566, the “area with substrate ESLYFQS” value was 0.069 and the “area with substrate ETLYFQS” value was found to be 0.0984. Besides, the “area with substrate EVLYFQS” value is 0.0586 and the “area with substrate EWLYFQS” value was found to be 0.0666.

With A170N, the “area with substrate EALYFQS” value was determined as 0.0628, the “area with substrate ECLYFQS” value is 0.0621, the “area with substrate EDLYFQS” value amounted to 0.0466 and the “area with substrate EELYFQS” value came out at 0.0651. For the same variant, the “area with substrate EGLYFQS” value worked out at 0.0641, the “area with substrate EILYFQS” value amounted to 0.0367, the “area with substrate EKLYFQS” value was 0.0605 and the “area with substrate ERLYFQS” value amounted to 0.0489. Besides, the “area with substrate ESLYFQS” value came to 0.0495 and the “area with substrate ETLYFQS” value is 0.0656.

On to F180T, for which the “area with substrate EALYFQS” value is 0.056, the “area with substrate ECLYFQS” value was 0.0734, the “area with substrate EELYFQS” value worked out at 0.0474 and the “area with substrate EGLYFQS” value turned out to be 0.0376. The “area with substrate EILYFQS” value came to 0.0384, the “area with substrate EKLYFQS” value is 0.0665, the “area with substrate EPLYFQS” value worked out at 0.0567 and the “area with substrate ETLYFQS” value amounted to 0.052. Besides, the “area with substrate EVLYFQS” value was found to be 0.0554.
